# Source: the supplement of paper PMC3334620
# Over roughly 33,000 sequences, “E-score (-0.5 to 0.5)” has its median near -0.016; the highest 2% begin near 0.31. This is one part of the list.
# Target: Cst6 (UniProt P40535)
# Assay: PBM E-score (8-mer binding enrichment) (E-score (-0.5 to 0.5)); higher = stronger / more preferred TF binding; most listed sequences are background and not binding sites
# Details: protein concentration: 200 nM; construct: GST-DNA-binding domain
# Protocol: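 Universal 'all 10-mer' protein binding microarrays (Agilent AMADID 015681) probed with GST-tagged S. cerevisiae TFs (full-length or DBD) made by in vitro transcription/translation (PURExpress), about 100-200 nM. Bound TF was detected with fluorescent anti-GST. Each ungapped 8-mer (which stands for itself and its reverse complement) is scored by the PBM enrichment score (E-score), a modified Wilcoxon-Mann-Whitney statistic from -0.5 to +0.5, computed with the Universal PBM Analysis Suite. Scale: above 0.35 generally sequence-specific binding.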
row,Sequence,PBM E-score
1,GGGGGGGA,-0.404
2,AAGTAACG,0.0219
3,GATGAGGA,0.0495
4,GGATTGAA,0.117
5,AGGCGTTC,-0.296
6,ATTCGAGC,0.0412
7,TATAGACA,0.0313
8,GTATGAAA,0.148
9,AATCACCG,0.0977
10,AATAGGAA,0.12
11,TGCCGAAA,0.0378
12,CCGCTATA,-0.0308
13,AATTCGAT,0.147
14,GTACTCAA,0.0374
15,ACGTGGGA,-0.173
16,AGGCTATC,-0.191
17,AGAGGTTA,-0.0325
18,ACAACTCA,0.115
19,CCAGACGG,-0.208
20,CGATGCCC,-0.202
21,ATTGGAGA,-0.00124
22,CGGTGCGA,-0.165
23,AATTGGAA,0.12
24,AGGATGGC,0.0183
25,ACACTCCG,-0.136

row,Sequence,PBM E-score
1,CAGAGTGA,0.0082
2,AACTCGAT,0.0881
3,CTCATTGA,-0.0286
4,AAGACCAC,-0.31
5,CAGTGTGC,-0.255
6,ATAAGATA,0.175
7,AGTATAAG,0.188
8,CGACAGTC,-0.24
9,CGAGAGTA,-0.0682
10,AGCAGCTG,-0.0203
11,AAACCGTT,-0.0828
12,GTAGGCGA,-0.0534
13,GTAGCCAA,-0.16
14,CCAGAGAG,-0.321
15,CGCTGGCC,-0.275
16,ATTGGAAG,-0.00871
17,GCACAATA,-0.117
18,GATGCGAA,0.0293
19,ATGTATCC,0.0466
20,ACCCTGCC,-0.252
21,GGCTCGCA,-0.0199
22,ACAAATCT,0.101
23,ATACCATG,-0.105
24,AGGAATAA,0.107
25,CCGATTTA,0.0277

row,Sequence,PBM E-score
1,ACCTAAGA,0.0966
2,CATCCGTA,0.22
3,CACACGTG,0.223
4,GAGCACCA,-0.219
5,CCGCCAAG,-0.307
6,CGCCTGGC,-0.209
7,ACAAGACG,-0.0785
8,AGGGGTGG,-0.17
9,GATCAAGC,0.0222
10,CAAGACTG,-0.00228
11,CAGATTGA,0.123
12,CAATAGTG,0.0792
13,GGTGGAGA,-0.338
14,CTGGTGAC,0.263
15,GGAAAGCA,-0.0362
16,CGACTTAA,-0.00064
17,CGAACTGC,-0.214
18,AGAAACTG,0.0398
19,GGCAATAA,-0.00855
20,CTCCTGCC,-0.112
21,TGTCGAAA,0.0613
22,AGTAAGGG,-0.0903
23,ATCTAGTG,-0.101
24,AAACGAGC,0.104
25,ACACGTCT,0.0155

row,Sequence,PBM E-score
1,ATTCACCA,0.0508
2,CTTGTACA,0.0414
3,CTACACCA,0.0191
4,CCAACATC,-0.192
5,AAACCGCT,-0.187
6,ACATGGTC,-0.0428
7,CCTGAGCC,-0.213
8,AGTTTAAT,0.184
9,TCTTGGCA,0.205
10,AATCTAAG,0.00119
11,CCAAGCTA,-0.266
12,AAATAGAG,0.094
13,CGGGAACA,0.0552
14,AACGACAG,0.0574
15,GACGCCAA,0.111
16,GAAGAGTA,-0.0467
17,CCCAGAAA,-0.016
18,GGGCAAAC,-0.12
19,TAGCCGGA,-0.0545
20,ACGTGTGG,0.0682
21,CTCGGCAC,-0.0863
22,CGTTCTGC,-0.0293
23,ACCAAGCC,-0.235
24,AGTTGTGG,0.159
25,AAGGCTAC,-0.0533

row,Sequence,PBM E-score
1,GCGGTAAA,0.149
2,ACCTCCCC,-0.226
3,CCCGCCCG,-0.0149
4,ATACCTCC,-0.244
5,ACGCTCCA,-0.0805
6,TCTCCGAA,-0.0577
7,AACATACC,0.0667
8,AGATTGAA,0.122
9,TCATACCA,0.097
10,ACAGGATA,0.0807
11,CGCGGTAG,-0.122
12,GCTACAGA,-0.21
13,CCTGACCA,0.04
14,CAGACTTA,-0.094
15,GCGACAAA,0.0926
16,ACACTGAA,0.171
17,ATCTCAAA,0.203
18,GATATCAA,0.223
19,GAACTGCA,-0.0481
20,TGTGGCAA,0.134
21,GACTCCAA,-0.306
22,CAAGACTA,-0.114
23,CATGGGAG,-0.159
24,GCATACCC,-0.111
25,CTCTGCCA,-0.00779

row,Sequence,PBM E-score
1,CTCGGACA,-0.122
2,CCTAACTC,-0.194
3,CAAACGTC,0.137
4,GCTCGTTA,-0.151
5,ATAACAAC,0.171
6,ATATTAAC,0.303
7,CGTAGGCA,-0.151
8,AATGGCTC,-0.0445
9,CCACAATA,0.00807
10,CTAATTGA,0.0398
11,GCAATCGC,-0.0602
12,ATTGTCTA,0.218
13,ATCTGATA,-0.107
14,GAGGCATA,0.14
15,CATTTCAA,0.222
16,GCTGGAAA,-0.0103
17,TGCCTGAA,-0.0922
18,AATCTCCG,-0.00291
19,AGGAATAG,0.0371
20,CTCGGCCC,-0.362
21,ACTCACAG,0.0658
22,CTCCGATC,-0.293
23,ATAAACCA,0.0829
24,ATCGCCTC,0.148
25,ACTGCCGG,-0.192

row,Sequence,PBM E-score
1,AAAGTATC,0.155
2,GGGATGAA,-0.25
3,AAAACTTC,0.151
4,AGTGCTTC,-0.195
5,GAAGGTGA,0.0622
6,ACTACTGA,-0.098
7,AGCATTAC,0.079
8,AGGGCACA,0.151
9,GATCCTCA,0.00029
10,AGCATGAT,0.0554
11,GGGATCCC,-0.219
12,ATGCCAGC,-0.103
13,CAGTCTCA,0.0411
14,AGTAACAT,0.228
15,ATGGACGC,0.0988
16,AGACGTAG,-0.133
17,AAGGCCGA,-0.142
18,ACCTACGC,-0.0589
19,AGCTGACC,-0.126
20,CGCGAACG,-0.125
21,GAATAGGC,0.0172
22,CGGCCTCC,-0.151
